# Measurements reported in paper PMC4336329 (PLoS ONE, 2015).
# The whole screen tested about 310,000 compounds, of which about 2,200 (0.71%) showed an effect of 50% or more. Effects have a minus sign here. The list shows a part of the results.
# Molecular target: human ether-à-go-go-related gene (hERG) potassium channel (human, UniProt Q12809)
# Experiment: primary screen, population patch clamp on CHO cells stably expressing hERG
# Sequence of human ether-à-go-go-related gene (hERG) potassium channel (Q12809 whole entry, looked up): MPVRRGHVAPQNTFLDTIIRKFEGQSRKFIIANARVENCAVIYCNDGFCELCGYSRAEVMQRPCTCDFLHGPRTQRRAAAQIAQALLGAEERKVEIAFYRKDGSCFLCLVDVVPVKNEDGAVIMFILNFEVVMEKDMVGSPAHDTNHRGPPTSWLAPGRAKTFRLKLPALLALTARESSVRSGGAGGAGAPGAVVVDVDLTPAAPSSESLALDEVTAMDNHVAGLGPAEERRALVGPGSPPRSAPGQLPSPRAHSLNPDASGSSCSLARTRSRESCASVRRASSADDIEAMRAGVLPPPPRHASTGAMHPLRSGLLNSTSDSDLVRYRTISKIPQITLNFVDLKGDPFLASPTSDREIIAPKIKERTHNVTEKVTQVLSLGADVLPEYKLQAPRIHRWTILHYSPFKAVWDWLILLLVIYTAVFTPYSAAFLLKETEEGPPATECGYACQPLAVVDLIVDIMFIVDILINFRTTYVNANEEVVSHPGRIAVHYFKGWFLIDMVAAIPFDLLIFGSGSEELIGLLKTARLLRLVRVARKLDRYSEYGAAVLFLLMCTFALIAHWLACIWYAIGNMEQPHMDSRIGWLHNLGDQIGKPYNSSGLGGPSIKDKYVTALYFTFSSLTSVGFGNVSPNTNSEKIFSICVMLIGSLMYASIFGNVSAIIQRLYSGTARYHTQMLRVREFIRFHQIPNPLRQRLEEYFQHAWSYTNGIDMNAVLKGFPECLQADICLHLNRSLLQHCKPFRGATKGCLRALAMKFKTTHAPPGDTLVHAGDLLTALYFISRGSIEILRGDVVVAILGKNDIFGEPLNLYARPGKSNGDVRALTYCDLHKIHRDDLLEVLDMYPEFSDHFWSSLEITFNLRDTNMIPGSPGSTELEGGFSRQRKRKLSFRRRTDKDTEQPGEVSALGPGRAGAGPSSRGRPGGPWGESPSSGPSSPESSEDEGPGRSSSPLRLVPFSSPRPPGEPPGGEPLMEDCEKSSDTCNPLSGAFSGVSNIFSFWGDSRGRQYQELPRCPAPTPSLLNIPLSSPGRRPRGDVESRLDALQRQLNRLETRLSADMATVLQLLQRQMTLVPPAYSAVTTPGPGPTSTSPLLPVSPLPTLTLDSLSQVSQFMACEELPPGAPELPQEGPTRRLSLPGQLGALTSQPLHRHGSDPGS
row,Structure (SMILES),"hERG current change (%, negative = inhibition) at 1uM"
1,O=C(CCSc1ccccc1)Nc1nc2c(s1)COc1ccccc1-2,10%
2,O=C(O)/C=C/c1ccc(S(=O)(=O)N(CCO)CCO)cc1,11.8%
3,O=S(=O)([O-])CCC[n+]1ccc(Oc2ccccc2)cc1,11.2%
4,Cc1cc(C(=O)Nc2ccccc2N2CCOCC2)no1,2.61%
5,COc1cc(/C=N/NC(=O)c2cccc(NC(=O)c3ccccc3)c2)ccc1O,4.96%
6,Cc1c(CN2CCC(CO)(CCOc3ccccc3)CC2)[nH]c2c(Cl)cccc12,-8.68%
7,Cc1ccc(-c2[nH]ncc2C(=O)c2cccc(F)c2)c(O)c1,5.93%
8,Cl.Fc1cccc(Nc2c3c(nc4ccccc24)CCC3)c1,-9.35%
9,Cc1ccc(-c2nn(-c3ccccc3)cc2C(=O)Nc2ccc(C)c(S(=O)(=O)N3CCOCC3)c2)cc1,10.3%
10,CC(C)CC(=O)NC(c1cccs1)c1ccc2cccnc2c1O (centres unmarked),3.79%
11,Cc1cc(C)n(S(=O)(=O)c2ccc(F)cc2)n1,3.03%
12,Cc1nc(N2CCOCC2)nc(Oc2ccccc2F)c1[N+](=O)[O-],-1.98%
13,Cc1ccc(-c2nc(-c3ccccc3)no2)cc1,10.4%
14,CCN1CCN(Cc2c(C)[nH]c3ccc(C(=O)OC)cc3c2=O)CC1,-1.21%
15,Fc1ccccc1N1CCN(Cc2cc(-c3ccccc3)on2)CC1,13.3%
16,CC1CCCC(C)N1C(=O)COC(=O)CNC(=O)c1ccccc1 (centres unmarked),8.52%
17,CC(OC(=O)Cc1c[nH]c2ccccc12)C(=O)NC1(C#N)CCCCC1 (centres unmarked),23.4%
18,COc1ccc(CC(=O)Nc2cccc(S(=O)(=O)N3CCCCC3)c2)cc1,5.47%
19,C=CCNCCCOc1ccc(Cl)cc1C(C)(C)C.O=C(O)C(=O)O,-20%
20,COc1ccc(N2CCN(C(=O)c3cc4c(-c5cccc(OC)c5)nn(C)c4s3)CC2)cc1,14.5%
21,COc1cc(OC)cc(C(=O)NC(=S)Nc2ccc3[nH]c(=O)[nH]c3c2)c1,10.2%
22,CCNC(=O)Oc1ccc(-c2csnn2)cc1,7.42%
23,Cc1cccc(C(C#N)c2ccc(Cl)nn2)c1 (centres unmarked),8.57%

row,Structure (SMILES),"hERG current change (%, negative = inhibition) at 1uM"
1,COc1ccc(C(=O)NCCCNC(=O)c2cnccn2)cc1,5.29%
2,CCOC(=O)c1cc(-c2csc(COc3ccc(Cl)cc3)n2)on1,10.4%
3,COc1ccc(/C=N/Nc2ncnc3scc(-c4ccccc4)c23)cc1OC,10.4%
4,CC1=NNC(=O)C1C(c1ccccc1)C1C(=O)NN=C1C.O=C(O)C(=O)O (centres unmarked),5.86%
5,Cc1c(Cl)cccc1NC(=S)NCc1ccccc1,10.8%
6,CCOc1cc(C)c(S(=O)(=O)NCc2ccccn2)cc1C,5.57%
7,CCN(c1ccc(OC)cc1)S(=O)(=O)c1cc(-c2cc(C)no2)ccc1C(C)C,22.5%
8,COC(=O)c1c(NC(=O)C2CC(C)=C(C)CC2C(=O)O)sc2c1CCCCC2 (centres unmarked),8.72%
9,COc1ccc(NC(=O)CN(C)C(=O)c2ccccc2SCC(=O)N2CCCC2)cc1,11.7%
10,CC(=O)N1CCN(c2ccc(NC(=O)c3ccc(N4CCCC4)c([N+](=O)[O-])c3)cc2Cl)CC1,-5.55%
11,COCCCNC(=O)CN1C(=O)CSc2ccc(S(=O)(=O)N3CCOCC3)cc21,2.83%
12,CCOc1ccccc1OCCN1CCCC1,11.3%
13,CC(C)(C)NS(=O)(=O)c1ccc(CCC(=O)NCc2ccccn2)cc1,13.3%
14,CCN(C(=O)CCc1nnc2ccc(NCc3ccco3)nn12)c1ccccc1,7.11%
15,CC(=O)c1c(C)[nH]c(C(=O)NCCc2ccccc2)c1C,12.1%
16,Cc1c(NC(=O)Oc2ccccc2)sc(=S)n1C,8.03%
17,Cc1cc(NS(=O)(=O)c2ccc(NC(=O)COc3ccc(Cl)cc3Cl)cc2)no1,-0.394%
18,Cc1ccc(S(=O)(=O)NCC(=O)N(CC(=O)NC2CCCC2)CC2CCCO2)cc1 (centres unmarked),12.1%
19,S=C(Nc1ccccc1)Nc1nc2ccccc2n1CCOc1ccc(Br)cc1,11.1%
20,CC(=O)N=c1n(C)c2ccccc2n1CCOc1ccccc1,4.41%
21,O=C(Nc1ccccc1C(=O)O)c1cccc(N2C(=O)c3ccccc3C2=O)c1,13.9%
22,C=CCOC(=O)c1ccc(-n2cncn2)nc1,9.27%
23,C=CCN(CC=C)C(=O)C1CC(=O)N(c2ccc(Br)cc2)C1 (centres unmarked),-15%

row,Structure (SMILES),"hERG current change (%, negative = inhibition) at 1uM"
1,Cc1ccc(CNC(=O)CCNS(=O)(=O)c2cccc3nonc23)cc1,26.9%
2,CCOc1ccc(/C=N/Nc2ccccc2)cc1,11.2%
3,O=[N+]([O-])c1cc(S(=O)(=O)N2CCOCC2)ccc1N1CCCC1,11.7%
4,COc1ccccc1Oc1ccc2c(c1)C(=O)N(c1ccc(Br)c3cccnc13)C2=O,1.75%
5,COc1cc(-c2nnc(-c3ccco3)o2)ccc1OCc1ccccc1,8.88%
6,COc1cc(NC(=O)C2CCCN(S(=O)(=O)c3ccc4[nH]c(=O)ccc4c3)C2)cc(OC)c1 (centres unmarked),15.7%
7,COc1ccccc1-c1nnc2sc(C3CCCCC3)nn12,-8.68%
8,O=C1c2ccccc2C(=O)N1CCSc1n[nH]c(=S)s1,12.5%
9,CCOC(=O)Cc1csc(NC(=O)CSc2nc(=O)[nH]c3c2CCCC3)n1,5.6%
10,COc1cccc(NC(=O)CSc2nc3ccccc3c3nc4ccccc4n23)c1,-5.54%
11,CCCn1c(=O)[nH]c(=O)c2c1nc(-c1cccs1)n2CCOC,3.84%
12,Cc1ccc(N(CC(=O)NCCSCc2ccco2)S(=O)(=O)c2ccc(C)cc2)cc1,-28.8%
13,CN(C)S(=O)(=O)c1ccc(C(=O)N2CCC(c3nc4ccccc4o3)CC2)cc1,-3.18%
14,CCCc1cc(=O)oc2cc(OC(C)C(=O)NCCCn3ccnc3)ccc12 (centres unmarked),-3.79%
15,c1ccc2c(c1)NC1(CCCCC1)n1c-2nc2ccccc21,0.831%
16,O=C(C[n+]1cc(Br)cc2ccccc21)c1ccc(Br)cc1.[Br-],-15.6%
17,CCc1ccc(N2CCN(C(=O)c3ccc4c(c3)OCO4)CC2)cc1,-5.89%
18,Cc1cccnc1NC(=O)CNC(=O)c1cccs1,4.75%
19,C/C(=N\NS(=O)(=O)c1ccc(Br)cc1)c1ccncc1,6.15%
20,O=C(CNCc1ccc(F)cc1)Nc1ccc(C(=O)N2CCCCC2)cc1.O=C(O)C(=O)O,11.1%
21,Cc1cccc(NC(=O)c2cccc(N3C(=O)C4C5C=CC(C6CC56)C4C3=O)c2)c1 (centres unmarked),4.86%
22,O=C(Nc1ccnc(-c2cccnc2)n1)c1ccc(F)cc1,-3.14%
23,O=C(CN1N=C(c2ccc(Cl)cc2)CCC1=O)NCc1cccs1,0.718%

row,Structure (SMILES),"hERG current change (%, negative = inhibition) at 1uM"
1,CC(=O)N1c2c(cc(Br)cc2S(=O)(=O)NCc2ccc(C)cc2)CC1C (centres unmarked),-12.2%
2,O=C(Cc1csc(NC(=O)Nc2cccc(Cl)c2)n1)NCc1ccccn1,8.02%
3,Cc1cc2c(n1-c1ccc(Cl)cc1)CC(C)(C)CC2=O,-2.53%
4,COc1ccc(-c2cc(=O)oc3cc4occ(C)c4cc23)cc1,-5.04%
5,Cc1cc(NS(=O)(=O)c2ccc(NC(=O)Cc3cccs3)cc2)no1,0.777%
6,N#CC1(c2c(O)nc3n(c2=O)CCCS3)CCCCC1,11.9%
7,CC(C)(C)c1cc(C(=O)NNc2cccc(Cl)c2)n(Cc2ccccc2)n1,12.8%
8,COc1ccc(C(=O)NCCc2ccc(S(N)(=O)=O)cc2)cc1OC,-4.77%
9,O=C(O)c1ccccc1SC1CC(=O)N(c2ccccc2)C1=O (centres unmarked),-0.125%
10,CCC(=O)NC(C)c1nc2ccccc2n1C (centres unmarked),10.6%
11,Cc1cc(=O)oc2c(C)c(OC(C)C(=O)NCCN3CCOCC3)ccc12 (centres unmarked),19.3%
12,COc1ccc(OCC(=O)N2CCN(C(=O)COc3ccccc3)CC2)cc1,-24.7%
13,O=C(COc1ccc(Br)cc1Cl)NC(=O)Nc1ccc2c(c1)OCCO2,2.79%
14,Fc1cccc(CSc2ncnc3c2oc2ccccc23)c1,9.17%
15,O=C(O)CS(=O)(=O)c1ccc(Oc2ccc(S(=O)(=O)CC(=O)O)cc2)cc1,6.57%
16,O=C(NCc1cccc(C(F)(F)F)c1)C1CC(c2ccccc2C(F)(F)F)=NO1 (centres unmarked),2.14%
17,O=C(N/N=C/c1ccc(F)c(F)c1)c1cc2c(s1)-c1ccccc1CC2,10.1%
18,CCN(CC)CCNC(=O)c1cn(CC)c2ccc(S(=O)(=O)N3CCc4ccccc4C3)cc2c1=O,-5.47%
19,NC(=O)c1cc([N+](=O)[O-])ccc1NCc1cccnc1,3.58%
20,Cc1ccccc1NC(=O)CCc1c(C)nn(-c2ccc(N3CCOCC3)nn2)c1C,6.68%
